Target: the molecule itself
Assay: native gel or EMSA; native blue gel electrophoresis, data not shown; 420 kDa homo-hexamer

| Protein | stoichiometry N |
| --- | --- |
| FLAG-tagged L157A optineurin (FLAG-OPTN L157A) (natural protein, optineurin, human, with the point mutation Leu157 to Ala in the leucine zipper ([…]); both copies are written as this one molecule; also called L157A mutant; pTarget-FLAG-OPTN_(L157A); source: RPE (ARPE-19) cells, transiently transfected 16 h, in lysate) not shown | 6 |
| FLAG-tagged E50K optineurin (FLAG-OPTN E50K) (natural protein, optineurin, human, with the glaucoma-associated mutation Glu50 to Lys; construct made as described in earlier work; both copies are written as this one molecule; also called E50K mutant; pTarget-FLAG-OPTN_(E50K); source: RPE (ARPE-19) cells, transiently transfected 16 h, in lysate) not shown | 6 |
